Laboratory results as given in ChEMBL document CHEMBL4888484, “Replenishing the malaria drug discovery pipeline: Screening and hit evaluation of the MMV Hit Generation Library 1 (HGL1) against asexual blood stage Plasmodium falciparum ,using a nano luciferase reporter read-out” (2022).
Screen size: about 150,000 compounds; about 540 (0.36%) showed an effect of 50% or more. The list shows a part of the results.

System: Plasmodium falciparum
Assay: Primary screen in NF54 nanoGlo assay, in single point, at 2uM, 72h; a lower Z score goes with more inhibition
Assay type: functional, Erythrocyte
Settings: timepoint 72 hour

SMILES | % Inhibition | Z score
CCCNC(=O)N1CC(Cc2nc(-c3cccnc3)no2)C1 | -4% | 0.68
Cc1cccc(-c2nc(Cn3cnc4nc5c(cc4c3=O)C[C@@H](C)CC5)c(C)o2)c1 | -6% | 0.73
Cc1cc(C)n2ncc(-c3noc(CCC(=O)c4ccccc4)n3)c2n1 | -11% | 1.54
O=C(NCC1=CCN([C@@H]2C=CCCC2)CC1)c1cccc(Cl)c1 | -2% | 0.36
Cc1ccc(CC2CN(C(=O)NCc3ccc4cncn4c3)C2)cc1 | -14% | 1.59
CC(C)[C@H](C)NC(=O)Nc1cccc(OC(F)F)c1 | 1% | -0.13
O=C(CN(C(=O)c1ccc(Cl)cc1Cl)C1CC1)N(CCc1c[nH]c2ccccc12)Cc1ccc(Cl)cc1 | -7% | 1
C[C@@H](c1ncc(-c2ccccc2)o1)N1CCN(Cc2ccccn2)CC1 | -11% | 2.04
COc1ccc(-c2c(-c3cccc(OC)c3)[nH]c3c2c(=O)[nH]c(=O)n3C)cc1 | 90% | -8.97
Cc1nc(N2C(=O)N(C)C3(CCCC3)C2=O)oc1C | 3% | -0.31
CN1CC[C@H]2CC[C@@H](C1)N2Cc1cc(C#N)n(C)c1 | 14% | -1.3
Cc1nc2c(C(=O)N[C@@H]3CCCOC3)ccnc2[nH]1 | -3% | 0.29
O=C(O)[C@H]1CN(Cc2cncn2Cc2ccccc2)C[C@@H]1C1CC1 | 1% | -0.28
Cc1ccnc(NC(=O)Cc2c(C)nc(C)[nH]c2=O)c1 | -11% | 1.21
CCN(Cc1cnn(CC)c1)C(=O)[C@@H]1CCCCC(=O)N1Cc1ccccc1 | -5% | 0.53
O=C(Cc1cc2c(ccc3ccccc32)o1)N[C@H]1CCS(=O)(=O)C1 | 31% | -3.48
CC(Cn1cncn1)NC(=O)N1CC(N2CCOCC2)CC1C (stereo unspecified) | 2% | -0.25
Cc1nc2c(C#N)cnn2c2c1CCN2Cc1ccco1 | -2% | 0.24
Cc1ccc(-n2nc(C(=O)NCc3ccccn3)c(=O)n(Cc3ccccc3)c2=O)cc1F | -13% | 1.57
O=C(C[C@@H]1CCNC[C@@H]1Cc1cc(COc2ccccc2)on1)Nc1ccccc1 | 33% | -3.75
Cc1c(NC(=O)c2ccccc2C(=O)c2ccc(Cl)cc2)c(=O)n(-c2ccccc2)n1C | 8% | -1.14

SMILES | % Inhibition | Z score
CCOc1ccccc1[C@H]1C2CCCCC2(O)CCN1CC(N)=O (stereo partly specified) | -3% | 0.35
COc1cccc(NC(=O)c2c([O-])n(-c3cccc(OC)c3)n[n+]2CC#N)c1 | -20% | 2.33
CNC(=O)Cn1nc(C(=O)N2CCO[C@H](C(=O)N3CCCCCC3)C2)cc1C | 2% | -0.25
Cc1cnc(C(=O)N[C@@H]2CCC[C@@H]2C(=O)N2CCN(C(=O)c3ccco3)CC2)cn1 | 4% | -0.47
O=C(COCC(=O)Nc1ccc2c(c1)CCC2)Nc1ccc2c(c1)CCC2 | -14% | 1.26
Nc1nc(N2CCOCC2)ncc1C(=O)Nc1ccccc1 | 10% | -1.22
O=C(NC(c1ccccn1)C(F)(F)F)C1CC(Cc2cccc(F)c2)=NO1 (stereo unspecified) | 14% | -1.8
COc1ccccc1-c1nn(-c2cccc(F)c2)c(OC(C)=O)c1-c1ccc(NC(=O)c2ccccc2)cc1 | -9% | 1.06
COc1ccc(NC(=O)COC(=O)c2cc(-c3ccc(Cl)c(Cl)c3Cl)nc3ccccc23)cc1S(=O)(=O)N1CCOCC1 | -3% | 0.53
Cc1ncsc1Cn1ccn2nc(C(F)(F)F)cc2c1=O | 15% | -1.93
COc1ccc(N2CCN(Cc3cc(-c4ccc(Cl)cc4)no3)CC2)cc1 | 37% | -4.83
CC(NCc1cncn1C)C(C)N1CCOCC1 (stereo unspecified) | -1% | 0.11
Cc1cccc(C)c1NC(=O)N[C@H]1CCCC12OCCO2 | 11% | -1.23
COCCN(Cc1cccs1)c1cc([C@H]2CCOC2)ncn1 | -12% | 2.55
Cc1noc(C)c1C(C)NC(=O)N1CCCCC1CCO (stereo unspecified) | -4% | 0.67
CC1CCC2(CC1)CC(=O)N(C[C@@H](O)CC(F)(F)F)C2=O (stereo partly specified) | -6% | 1.11
COc1ccc(-c2noc(N3CCN(c4cc(Cl)ccc4C)CC3)n2)cc1OC | 7% | -1.14
Cc1ccncc1NC(=O)Cn1nc(C2CC2)ccc1=O | 1% | -0.1
CCCNC(=O)N1CCC2(CC1)C[C@@H](N1CCN(c3ccccn3)CC1)CCO2 | -16% | 1.68
COc1ccc(C2=NN=C(n3nc(C)cc3C)c3ccccc3C2)cc1 | -8% | 0.99
CCCCOCCNc1ccc(Br)cc1 | -6% | 0.79

SMILES | % Inhibition | Z score
CCn1nc(C)c(CN2CC[C@](CCOC)(NS(=O)(=O)c3ccccc3)C2)c1C | -12% | 1.36
CN1CCN(C(=O)c2cn3ccccc3n2)CC1=O | 1% | -0.07
C=CCCS(=O)(=O)NCCN1CC(C)CC(C)C1 (stereo unspecified) | 0% | -0.04
C[C@@H](CNS(=O)(=O)CCC(F)(F)F)c1ccc(F)cc1 | 0% | -0.02
O=C(O)[C@@H]1CC2(CCN(C(=O)C3(c4ccccc4)CCCC3)CC2)CN1 | -6% | 1.07
CCNC(=O)N1CCN(c2cc(Oc3cc(C)ccc3F)ncn2)C[C@@H]1C | -6% | 1
Cn1cc([C@@H]2CCCN2Cc2nccn2Cc2ccccc2)cn1 | -5% | 0.74
Cc1cnccc1CN(C)[C@@H](C(=O)O)c1ccc2c(c1)OCCO2 | -2% | 0.2
Clc1ccc2nc3c(c(-c4ccccc4)c2c1)CCCCC3 | -2% | 0.31
COc1ccccc1CCNC(=O)N1CCCn2nc(C#N)cc2C1 | -4% | 0.87
O=C(N[C@H]1CC12CCC2)c1cncs1 | -15% | 2.05
CC(=O)N1CC[C@H](NC(=O)c2cccc(-n3cccn3)n2)c2ccc(F)cc2C1 | 0% | -0.04
Cc1nccc([C@H](C)NC(=O)N2CCn3cncc3C2)n1 | -6% | 0.59
Cc1cccc(OC[C@H](C)NC(=O)c2c(C)nc(C(C)C)[nH]c2=O)c1 | -6% | 0.94
CC1CCN(S(=O)(=O)N2CCC(C(=O)N3CC[C@H](c4nc(C5CCOCC5)no4)C3)CC2)CC1 | -22% | 2.8
CC(C)[C@H](NC(=O)c1ccc(C2CCOCC2)cc1)c1cnn(C)c1 | -1% | 0.11
Cn1ccc(C(=O)NC[C@H]2CCCO2)n1 | 3% | -0.38
CCCn1nc(C)cc1CN(C)c1ccc(C(=O)O)cc1NS(=O)(=O)c1cccc(C)c1 | -8% | 0.81
COc1c(C(=O)Nc2cccc(F)c2)oc2ccc(NC(=O)c3cc(C)cc(C)c3)cc12 | -17% | 2
CC(C)(CNC(=O)C1CCCCC1)N1CCOCC1 | -14% | 2.1
CC(C)c1cc(CNC(=O)c2cnc(-c3cccs3)nc2)no1 | -5% | 0.44

SMILES | % Inhibition | Z score
CN1N=C(c2nc(C3(NC(=O)OC(C)(C)C)CCC3)no2)CCC1=O | -1% | 0.11
Cc1c(NC(=O)Nc2ccc3c(c2)OCCO3)cnn1C | -7% | 0.66
O=C(NCCn1cc(Cl)cn1)[C@H]1CCc2ccccc2C1 | -5% | 0.86
COc1ccc2ncn(CCCc3csc(N)n3)c(=O)c2c1 | -15% | 1.97
CC(F)(F)C(C)(C)NC(=O)c1ncccc1F | 1% | -0.22
Cc1nscc1C(=O)NCCN1CC2CCC(C1)O2 | -4% | 0.56
Cc1ccc2c(c1)N[C@H](C(=O)N1CCN(c3cccc(Cl)c3)CC1)NS2(=O)=O | -7% | 1.41
COc1ccc(N2CCN(C(=O)c3nn(-c4ccc(Cl)cc4)c(=O)n(C)c3=O)CC2)cc1 | 1% | -0.06
COc1ccc(CCNC(=O)Cn2cc(C(=O)c3ccncc3)c(=O)c3cc(C)c(F)cc32)cc1OC | -3% | 0.42
COCCOCCCC(=O)NC[C@@H](c1ccc(C)cc1)N1CCCC1 | 4% | -0.34
O=C(Nc1ccc2c(c1)OCO2)N(Cc1cccnc1)C1CCCCC1 | -11% | 1.45
O=C(Nc1cccc(-c2noc(-c3cncc(C(F)(F)F)c3)n2)c1)c1ccco1 | 0% | -0.01
CC(C)(C)c1cc(CNc2cc(-c3ccncc3)nc3ccnn23)[nH]n1 | 0% | -0.03
CC1(C)COCCN1C(=O)CCCC(=O)N1CCOCC1(C)C | -9% | 1.2
COc1ccc(N2C(=O)CN(S(C)(=O)=O)C[C@@]2(C)C(=O)NC2CCCCCCC2)c(OC)c1 | 1% | -0.12
CCOCCC1(Cn2nnnc2N(C)Cc2cnn(C)c2)CCC1 | -11% | 1.46
O=C(Cn1cccn1)Nc1cccc(N2CCCC2=O)c1 | -2% | 0.34
Cc1cc(C)n(C(=O)CNc2ccc(C)c(C)c2)n1 | -10% | 1.35
CCOc1cccc(-c2ccc3nc(-c4cccc(OC)c4)c(CCC(=O)NC4CC4)n3c2)c1 | 4% | -0.75
CCN(CC)c1ccc2c(c1)Oc1cc(N(CC)CC)ccc1C21c2ccccc2C(=O)N1c1ccccc1 | 3% | -0.67
